Counter-ions that a name gives are not always drawn. Over roughly 2,800 compounds, “cell viability relative to vehicle” has its median near 0.98; the lowest 2% begin near 0.45. Some of the results follow.

Experimental findings from the supplement of paper PMC10600219 are described below.

In the assay the test system is NCI-H2228 alectinib-DTP. The assay can be described thus: cell viability relative to vehicle (fraction of vehicle); NCI-H2228 is an ALK-positive lung cancer line and DTP means drug-tolerant persister; higher = less growth inhibition. The note with it: 100 nM; treatment time 6 days. Summed up: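 Values give cell viability as a fraction of vehicle-treated cells. Parental and drug-tolerant persister NCI-H2228 cells (persisters made with 1000 nM of a targeted drug for 13 days) were exposed in 384-well plates to the 3114-agent TargetMol anti-cancer compound library at 100 nM, with DMSO as vehicle. ATP was then read after 6 days by the CellTiter-Glo 3D Cell Viability Assay.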
`COc1nc(OCc2cccc(-c3ccccc3)c2C)ccc1CNCCNC(C)=O` [PD1-PDL1 inhibitor 2]: the cell viability worked out at 0.928.

The molecule `CC[C@@H]1C(=O)OC[C@@H]1Cc1cncn1C` [Pilocarpine nitrate] yielded a cell viability of 1.01.

Molecule `CC[C@@H]1C(=O)OC[C@@H]1Cc1cncn1C` [(+)-Pilocarpine hydrochloride] showed a cell viability of 0.933.

As for `Oc1ccc(C(c2c[nH]c3ccccc23)c2c[nH]c3ccccc23)cc1`, the cell viability came out at 1.08. Molecule `CN1CCc2c(c3ccccc3n2Cc2ccc(C(=O)NO)cc2)C1` [Tubastatin A HCl] had a cell viability of 0.892. In turn, `Cc1c(CN2CCN(C(=O)[C@H](C)O)CC2)sc2c(N3CCOCC3)nc(-c3cnc(N)nc3)nc12` [Apitolisib] displayed a cell viability of 0.434.

Turning to `CN1C(=O)CC[C@H]1c1cccnc1` [(-)-Cotinine], the cell viability turned out to be 1.08. Turning to `CC(C)(CO)c1cc2cc(NC(=O)C3(c4ccc5c(c4)OC(F)(F)O5)CC3)c(F)cc2n1C[C@@H](O)CO`, the cell viability is 1.03. `OCc1c[nH]c2ccccc12` [Indole-3-carbinol] displayed a cell viability of 0.81. On to `O=C(Nc1ccccc1)C12CC1C(=NO)c1ccccc1O2` (stereo not drawn), for which the cell viability is 1.01. `Cc1ccc(C(=O)Nc2ccc(Oc3cc4cnn(C)c4cc3-c3cn[nH]c3)c(F)c2)c(=O)n1-c1ccc(F)cc1` [Merestinib] came in with a cell viability of 0.924. Consider `N#CCNC(=O)c1ccc(-c2ccnc(Nc3ccc(N4CCOCC4)cc3)n2)cc1` [Momelotinib], for which the cell viability amounted to 0.902.

For the molecule `CS(=O)(=O)OCCCCOS(C)(=O)=O` [Busulfan], the cell viability was 0.959.

`O=C(/C=C/c1ccc(O)cc1)c1ccc(O)cc1O` [Isoliquiritigenin]: the cell viability is 1.26. Regarding `N#Cc1ccc(-c2csc(NN=C3CCCC3)n2)cc1` [Remodelin hydrobromide], the cell viability turned out to be 1.09. Regarding `Cc1c(NC(=O)c2cccnc2)c(=O)n(-c2ccccc2)n1C` [Nifenazone], the cell viability was determined as 1.02. For `Cc1ncc(-c2ccnc(Nc3ccc(S(C)(=O)=O)cc3)n2)n1C(C)C`, the cell viability was found to be 0.914. `Nc1c(S(=O)(=O)c2ccccc2)c2nc3ccccc3nc2n1-c1ccc(F)cc1` had a cell viability of 1.11.

In the case of `N[C@@H](Cc1c[nH]c2ccccc12)C(=O)O` [L-Tryptophan], the cell viability was determined as 1.1. As to `Cc1ccc2nc(CN(CCN(Cc3nc4ccc(C)cc4[nH]3)Cc3nc4ccc(C)cc4[nH]3)Cc3nc4ccc(C)cc4[nH]3)[nH]c2c1`, the cell viability was determined as 1. The figure for `CCc1ccc(-c2nc(CSCC(=O)NCCc3ccccc3)c(C)o2)cc1` is 1.08; for `C=C1CC[C@@H]2[C@](C)(CO)[C@H](O)CC[C@@]2(C)[C@@H]1C/C=C1/C(=O)OC[C@H]1O` [Andrographolide] it is 0.928; for `Cc1cn([C@H]2C=C[C@@H](CO)O2)c(=O)[nH]c1=O` [Stavudine] it is 1.02.

Molecule `CC(=O)NS(=O)(=O)c1ccc(N)cc1` [Sulfacetamide sodium salt hydrate] displayed a cell viability of 0.923. In turn, `C=CC1=C(C(=O)O)N2C(=O)[C@@H](NC(=O)/C(=N\O)c3csc(N)n3)[C@H]2SC1` [Cefdinir] had a cell viability of 1.14.

The molecule `OCc1ccccc1O[C@@H]1O[C@H](CO)[C@@H](O)[C@H](O)[C@H]1O` [Salicoside] came in with a cell viability of 1.04. The value for `CNC(=O)c1ccccc1Nc1cc(Nc2ccc(N3CCOCC3)cc2OC)ncc1C(F)(F)F` was 0.968.

On to `CNC(=O)c1cc(Oc2ccc(NC(=O)Nc3ccc(Cl)c(C(F)(F)F)c3)cc2)ccn1` [Sorafenib], for which the cell viability is 0.992. The value for `CNC(=O)c1cc(Oc2ccc(NC(=O)Nc3ccc(Cl)c(C(F)(F)F)c3)cc2)ccn1` [Sorafenib tosylate] was 1.04; that for `COc1cccc2c1C(=O)c1c(O)c3c(c(O)c1C2=O)C[C@@](O)(C(C)=O)C[C@@H]3O[C@H]1C[C@H](N)[C@H](O)[C@H](C)O1` [Daunorubicin hydrochloride] was 0.638; that for `CONC(=O)Nc1ccc(-c2sc3c(c2CN(C)C)c(=O)n(-c2ccc(OC)nn2)c(=O)n3Cc2c(F)cccc2F)cc1` [Relugolix] was 1.12. For `Cc1cc(Cn2nnc3c(-c4ccco4)nc(N)nc32)ccc1N` [Vipadenant], the cell viability came out at 0.954. Molecule `COc1cc(-c2oc3cc(O)cc(O)c3c(=O)c2O)ccc1O` [Isorhamnetin] registered a cell viability of 0.889. Molecule `CCn1cc(C(=O)O)c(=O)c2c(N)c(F)c(NC3CCCCC3)cc21` registered a cell viability of 1.1. Turning to `CC/C(=C(\c1ccc(O)cc1)c1ccc(OCCNC)cc1)c1ccccc1` [(E/Z)-Endoxifen], the cell viability is 1.13.

Regarding `Cc1ccc(S(=O)(=O)Cc2nc(-c3ccc(C(=O)NCc4cccnc4)cc3)oc2C)cc1`, the cell viability stood at 0.955. Turning to `S=C(S)N1CCCC1` [Pyrrolidinedithiocarbamate ammonium], the cell viability stood at 0.998. Consider `CN(c1ccccc1CNc1nc(Nc2ccc3c(c2)CC(=O)N3)ncc1C(F)(F)F)S(C)(=O)=O`, for which the cell viability stood at 1.08. `CC(C)COc1ccc(CNC(=O)N(Cc2ccc(F)cc2)C2CCN(C)CC2)cc1` [Pimavanserin] showed a cell viability of 0.876. The figure for `CC(C)COc1ccc(CNC(=O)N(Cc2ccc(F)cc2)C2CCN(C)CC2)cc1` [Pimavanserin tartrate] is 1.06; for `O=c1oc2c(O)c(O)cc3c(=O)oc4c(O)c(O)cc1c4c23` [Ellagic acid] it is 1.04. The figure for `COc1cc(N2CCN(C)CC2)ccc1Nc1ncc2c(n1)N(C)c1ccccc1C(=O)N2` is 0.78. For `c1ccc2c(CC3=NCCN3)cccc2c1` [Naphazoline hydrochloride], the cell viability was determined as 1.19. `CCN(CC)CC(=O)Nc1c(C)cccc1C` [Xylocaine] came in with a cell viability of 1.1. `CC(=O)c1ccc(O)c(O)c1` [3',4'-Dihydroxyacetophenone]: the cell viability amounted to 0.925. The value for `CC(=O)c1cc2c(o1)C(=O)c1ccccc1C2=O` [Napabucasin] was 0.984. Take `Cc1ccccc1C(C(=O)NC1CCCCC1)N(C(=O)Cn1ccnc1C)c1cccc(F)c1` (stereo not drawn): the cell viability is 1.1. Molecule `CC(=O)NCCCCCC(=O)O` [Acexamic Acid] came in with a cell viability of 1.22. In turn, `O=c1n(CCCN2CCN(c3cccc(Cl)c3)CC2)nc2ccccn12` [Trazodone hydrochloride] displayed a cell viability of 0.994.

In turn, `O=C(O)c1cc(=O)[nH]c(=O)[nH]1` [Orotic acid] came in with a cell viability of 1.06. The value for `C=C[C@H]1CN2CC[C@H]1C[C@H]2[C@H](O)c1ccnc2ccc(OC)cc12` [Quinine] was 1.16. In turn, `CC1(C)S[C@@H]2[C@H](NC(=O)[C@H](N)c3ccccc3)C(=O)N2[C@H]1C(=O)O` [Ampicillin sodium] yielded a cell viability of 1.12. Molecule `O=C(O)c1ccc2cc(-c3ccc(O)c(C45CC6CC(CC(C6)C4)C5)c3)ccc2c1` yielded a cell viability of 0.819. The molecule `O=C(NC[C@H](O)CO)c1ccncc1Nc1ccc(I)cc1F` [Pimasertib] returned a cell viability of 0.836.

For the molecule `Oc1ccc(-c2nc(-c3ccc(F)cc3)c(-c3ccncc3)[nH]2)cc1`, the cell viability was determined as 1.17. Molecule `Cc1ccc(C(=O)Nc2ccc(CN3CCN(C)CC3)c(C(F)(F)F)c2)cc1C#Cc1cnc2[nH]ncc2c1` [GZD824 Dimesylate] had a cell viability of 0.33. Turning to `Cc1ccc(C(=O)Nc2ccc(CN3CCN(C)CC3)c(C(F)(F)F)c2)cc1C#Cc1cnc2[nH]ncc2c1`, the cell viability stood at 0.423. Molecule `O=C(O)c1ccccc1OP(=O)(O)O` [Fosfosal] came in with a cell viability of 0.837. In the case of `C/C=C(/C(=C/C)c1ccc(O)cc1)c1ccc(O)cc1` [Dienestrol], the cell viability was 1.13.

As to `CC1=C(/C=C/C(C)=C/C=C/C(C)=C/CO)C(C)(C)CCC1` [Retinol], the cell viability stood at 1.01. The molecule `OCCn1cc(-c2cnc3nnn(Cc4ccc5ncccc5c4)c3n2)cn1` registered a cell viability of 1.03. In turn, `COc1ccc2c3ccnc4ccc(=O)n(c2c1)c43` [9-Methoxycanthin-6-one] showed a cell viability of 0.841.

Turning to `Nc1cc(N2CCCCC2)nc(N)[n+]1[O-]` [Minoxidil], the cell viability worked out at 1.08. Turning to `C[C@]12CCC(=O)C=C1[C@@H]1C[C@@H]1[C@H]1[C@@H]3[C@@H]4C[C@@H]4[C@@]4(CCC(=O)O4)[C@@]3(C)CC[C@@H]12` [Drospirenone], the cell viability amounted to 0.859. Molecule `O=[N+]([O-])c1ccc(Nc2ccccc2-c2ccccc2)c2nonc12` displayed a cell viability of 0.879. With `COc1ccc2cc([C@H](C)C(=O)O)ccc2c1` [Naproxen], the cell viability was 0.744. The molecule `COC(=O)C[C@](O)(CCCC(C)(C)O)C(=O)O[C@@H]1C(OC)=C[C@]23CCCN2CCc2cc4c(cc2[C@H]13)OCO4` [Homoharringtonine] registered a cell viability of 0.2. On to `C=C(C)[C@@H]1CC[C@]2(CO)CC[C@]3(C)[C@H](CC[C@@H]4[C@@]5(C)CC[C@H](O)C(C)(C)[C@@H]5CC[C@]43C)[C@@H]12` [Betulin], for which the cell viability amounted to 0.922. The value for `CC(=O)O/N=C1/C(c2c(O)[nH]c3cc(Br)ccc23)=Nc2ccccc21` [BIO-acetoxime] was 0.726; that for `COc1cccc2c1C(=O)c1c(O)c3c(c(O)c1C2=O)C[C@@](O)(C(=O)CO)C[C@@H]3O[C@H]1C[C@H](N)[C@@H](O)[C@H](C)O1` [Epirubicin hydrochloride] was 0.767. On to `CN1CCC(Nc2nc(Nc3ccc(Oc4ccccc4)cc3)c3c(=O)[nH]cc(Br)c3n2)CC1`, for which the cell viability was found to be 0.973.

`CC(=O)O[C@H]1C(=O)[C@@]2(C)[C@H]([C@H](OC(=O)c3ccccc3)[C@]3(O)C[C@H](OC(=O)[C@H](O)[C@@H](NC(=O)c4ccccc4)c4ccccc4)C(C)=C1C3(C)C)[C@]1(OC(C)=O)CO[C@@H]1C[C@@H]2O` [Paclitaxel] returned a cell viability of 0.472. As for `COc1cc2nc(N3CCCC3)nc(NCCCCCN3CCCC3)c2cc1OC`, the cell viability was found to be 1.02. The figure for `Nc1ccc(-c2cnc(N)c(-c3ccc(Cl)cc3)c2)cn1` is 1.07. The molecule `CC[C@H](CC#N)OC(=O)N[C@@H](C)c1cccc(NC(=O)Nc2ccc(-c3cnco3)c(OC)c2)c1` had a cell viability of 0.694. `Cn1cnc2c(F)c(Nc3ccc(Br)cc3F)c(C(=O)NOCCO)cc21` [Binimetinib] came in with a cell viability of 0.825.

Turning to `O=C1[C@@H]2[C@H]3CC[C@H](C3)[C@@H]2C(=O)N1C[C@@H]1CCCC[C@H]1CN1CCN(c2nsc3ccccc23)CC1` [Lurasidone hydrochloride], the cell viability came out at 0.947. In the case of `CCCCCCCCCCCCCCCCn1cc[n+](Cc2ccccc2)c1C`, the cell viability was found to be 0.946.
